Source: the supplement of paper PMC4723716
± gives the uncertainty stated by the source. The full ranking holds about 9,900 compounds; the median of “viability index relative to DMSO control” is about 1, and the lowest 2% start at about 0.85. This is one part of the list.

What follows are compounds tested on Plasmodium falciparum NF54 stage V gametocytes (assay: viability index relative to DMSO control (fraction); higher = less gametocyte killing). Settings: 2.5 µM, library set: Broad Institute DOS, incubation time: 72 h.
How it was run: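 Viability index is the count of red-stained particles in a well divided by the plate mean of solvent-only wells. Particles of 20–70 µm2 were counted in one imaged field per well after one to two hours with 3 µl of 2.5 µM MitoTracker Red CMXRos and 0.13% saponin. Before staining, P. falciparum NF54 stage V gametocytes in serum-free medium (0.75% gametocytemia, 1.25% hematocrit, 10 µl, 1,536-well plates) were kept with compound at 2.5 µM for 72 hr at 37°C under low oxygen.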
Compound CC(=O)N1Cc2cc(C(=O)NCC(F)(F)F)nc(-c3cccc(-c4cccnc4)c3)c2[C@H]1CCO has a viability index of 1.16 ± 0.022.
With Cc1ccc(S(=O)(=O)N(C)C[C@@H]2OCCCC[C@@H](C)Oc3ccc(NC(=O)c4ccncc4)cc3C(=O)N([C@@H](C)CO)C[C@@H]2C)cc1 the viability index was 1.01 ± 0.064.
C[C@H](CO)N1C[C@H](C)[C@H](CN(C)C(=O)c2cnccn2)Oc2cc(C#CCC3CCCC3)ccc2S1(=O)=O showed a viability index of 0.901 ± 0.13.
O=C(C1CCCCC1)N1CC2(C1)[C@@H](c1ccccc1)[C@@H](CO)N2C(=O)c1cccnc1 gave a viability index of 0.9508 ± 0.0059.
In the case of Cc1ccc(S(=O)(=O)N2CC[C@@H]3[C@H]2c2cc(-c4ccccc4F)ccc2N(C)[C@H]3CO)cc1, the viability index is reported as 1.08 ± 0.041.
In the case of N#C[C@@H]1[C@H](c2ccccc2)[C@H](CO)N1C(=O)CCN1CCCCC1, the viability index is reported as 1.05 ± 0.056.
For CNC[C@H]1OCCCC[C@H](C)Oc2ccc(NC(=O)Nc3ccc(OC)cc3)cc2C(=O)N([C@H](C)CO)C[C@@H]1C, the viability index was 1.07 ± 0.022.
C[C@H]1CN([C@@H](C)CO)C(=O)c2ccccc2-c2ccccc2CO[C@@H]1CN(C)S(=O)(=O)c1cccs1 gave a viability index of 1.07 ± 0.056.
In the case of CN1c2ccc(-c3cccc(C#N)c3)cc2[C@H]2[C@H](CCN2C(=O)CN2CCOCC2)[C@@H]1CO, the viability index is reported as 1.12 ± 0.027.
In the case of Cc1noc(C)c1NC(=O)Nc1ccc2c(c1)C(=O)N([C@H](C)CO)C[C@@H](C)[C@@H](CN(C)S(=O)(=O)c1ccc(F)cc1)O2, the viability index is reported as 1.03 ± 0.13.
In the case of O=C(C[C@H]1CC[C@H]2NC[C@H](O)COC[C@@H]2O1)NCc1ccc2c(c1)OCO2, the viability index is reported as 0.982 ± 0.03.
In the case of CO[C@@H]1CN(C)C(=O)c2ccc(NC(=O)c3cccnc3)cc2OC[C@@H](C)N(CC2CCCCC2)C[C@H]1C, the viability index is reported as 1.08 ± 0.019.
Compound CCC(=O)N1C[C@]2(CCN(Cc3ccccc3Cl)CC2)c2c([nH]c3cc(OC)ccc23)[C@@H]1CO has a viability index of 0.987 ± 0.03.
In the case of C[C@H]1CN([C@@H](C)CO)C(=O)c2ccccc2-c2ccccc2CO[C@H]1CN(C)Cc1cccc(C(=O)O)c1, the viability index is reported as 0.958 ± 0.034.
C/C=C/c1ccc([C@H]2[C@H]3CNC[C@@H]2N3C(=O)NCCC)cc1 gave a viability index of 1.02 ± 0.025.
In the case of C/C=C/c1ccc2n(c1=O)C[C@@H]1[C@@H](CO)[C@H](C(=O)N(C)C)N(C(=O)CC)[C@H]21.C/C=C\c1ccc2n(c1=O)C[C@@H]1[C@@H](CO)[C@H](C(=O)N(C)C)N(C(=O)CC)[C@H]21, the viability index is reported as 1.05 ± 0.064.
With O=C(C[C@@H]1C[C@@H]2c3cc(NC(=O)C4CCOCC4)ccc3O[C@@H]2[C@H](CO)O1)NCc1cccnc1 the viability index was 1.09 ± 0.024.
Work on O=C(c1cccc(F)c1)N1CC(=O)N2[C@H](CO)[C@@H](c3ccc(/C=C/c4ccccc4)cc3)[C@H]2C1 yielded a viability index of 1.01 ± 0.017.
For O=C(C[C@H]1CC[C@@H](NC(=O)Nc2ccc(C(F)(F)F)cc2)[C@H](CO)O1)NCc1cccc(F)c1, the viability index was 0.953 ± 0.14.
Work on O=C(C[C@H]1CC[C@@H](NC(=O)c2cccnc2)[C@@H](CO)O1)NCc1ccc(Cl)c(Cl)c1 yielded a viability index of 0.969 ± 0.05.
With CNC[C@H]1OCCCC[C@H](C)Oc2ccc(NS(=O)(=O)c3ccc(F)cc3)cc2C(=O)N([C@@H](C)CO)C[C@H]1C the viability index was 1.04 ± 0.03.
CO[C@@H]1CN(C)C(=O)c2ccc(NC(=O)Nc3ccccc3Cl)cc2OC[C@@H](C)NC[C@@H]1C gave a viability index of 1.08 ± 0.073.
For CN(C)C(=O)C[C@@H]1C[C@@H]2c3cc(NC(=O)Nc4ccc(F)cc4)ccc3O[C@@H]2[C@@H](CO)O1, the viability index was 1.05 ± 0.031.
With CO[C@H](CN(C)Cc1ccc2c(c1)OCO2)[C@H](C)CN(C(=O)Nc1ccc(F)cc1)[C@H](C)CO the viability index was 1.0076 ± 0.00049.
Work on CN1C(=O)c2cc(NS(=O)(=O)c3cccc(F)c3)ccc2OC[C@@H]2O[C@@H](CC(=O)NCCN3CCCCC3)CC[C@H]21 yielded a viability index of 0.973 ± 0.011.
For O=S(=O)(c1cccs1)N1CCCCN2[C@H](CO)[C@@H](c3ccc(/C=C/c4ccccc4)cc3)[C@@H]2C1, the viability index was 1.06 ± 0.029.
C[C@@H]1CCCCO[C@@H](CN(C)C(=O)CCC(F)(F)F)[C@@H](C)CN([C@H](C)CO)C(=O)c2cc(NC(=O)C3CCCCC3)ccc2O1 gave a viability index of 1.05 ± 0.032.
In the case of Cc1cc(C(=O)Nc2ccc3c(c2)C(=O)N(C)[C@H]2CC[C@@H](CC(=O)O)O[C@@H]2CO3)no1, the viability index is reported as 1.02 ± 0.021.
Work on CO[C@H]1CC[C@@H]2CCOc3c(C#N)cccc3C(=O)N(C)C[C@H](OC)[C@@H](C)C(=O)N(C)C[C@@H]1O2 yielded a viability index of 1.01 ± 0.033.
For O=C(C1CCOCC1)N1CC[C@H]2[C@H](CO)Nc3ccc(-c4cccc(F)c4)cc3[C@H]21, the viability index was 1.04 ± 0.056.
C[C@@H]1CN([C@@H](C)CO)C(=O)c2cc(NS(=O)(=O)c3ccc(Cl)cc3)ccc2O[C@@H](C)CCCCO[C@@H]1CN(C)C(=O)CCCN(C)C was tested, and the viability index was 1.13 ± 0.13.
Work on COc1ccc2c3c([nH]c2c1)[C@@H](CO)N(Cc1ccccn1)C[C@]31CN(Cc2cccc(F)c2)C1 yielded a viability index of 0.935 ± 0.16.
O=C(C[C@@H]1CC[C@@H]2[C@H](COC[C@H](O)CN2C(=O)Nc2ccc(Cl)cc2)O1)NCC1CCCCC1 gave a viability index of 1.11 ± 0.12.
In the case of O=C(c1cnccn1)N1CC(=O)N2[C@H](CO)[C@H](c3ccc(C#CC4CC4)cc3)[C@H]2C1, the viability index is reported as 1.015 ± 0.0038.
